Experimental data as given in paper PMC12040169 (PLOS Biology, 2025).
Some of the results follow.

What follows are compounds tested on T1, C. trachomatis L2/434/Bu expressing GFP (CTL2-GFP). Details: total inclusion area; 28.5 h, 10 µM; inhibitor.
T1 construct: L2/434/Bu GFP intracellular growth in HeLa cells
Design: species or system HeLa; C. trachomatis total inclusion area by high-content imaging, normalised to DMSO
Procedure, shortened: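 Post-fluorescence-read fixation, DNA staining with Hoechst and high-content imaging; GFP inclusion area and number per well, and nuclei counts, used as proxies for bacterial growth and host viability.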

SMILES	% of control remaining
CSc1sc(NC(=O)Nc2cccc(C(F)(F)F)c2)cc1C#N [CBK017114]	58.3705
O=C(/C=C/c1cn(-c2ccccc2)nc1-c1cc2ccccc2oc1=O)NCc1ccccc1 [CBK266530]	117.787
Cc1n[nH]c(O)c1C(c1ccc(OC(=O)c2ccccc2Cl)cc1)c1c(C)n[nH]c1O [CBK264520]	113.649
Cc1cn(C2CC(O)C(CN=[N+]=[N-])O2)c(=O)[nH]c1=O (stereo not drawn) [CBK201256]	101.331
CCN(CC)CC(=O)Nc1sc2c(c1C#N)CCCC2 [CBK261646]	98.7671
CC(=O)c1c(-c2ccc(C)cc2)nc2n(CCN3CCCCC3)c3ccccc3n12 [CBK278231C]	84.7549
O=C(Oc1cccc2cccnc12)c1cc(S(=O)(=O)N2CCOCC2)ccc1Cl [CBK263210]	115.854
COCCNC(=O)c1cc(C2CC2)nc2c1cnn2C(C)C [CBK306099]	49.5211
Cc1c(-c2cc(C(=O)NC(C)C3CC4CCC3C4)no2)cnn1C (stereo not drawn) [CBK281653]	72.4205
CNCC1CCN(C(=O)c2ccc(Oc3cccnc3)cc2)C1 (stereo not drawn) [CBK304697]	126.401
CCn1cc(CN2CCC(O)(c3ccc(C)cc3)CC2)c(C)n1 [CBK282955]	104.413
Cc1nc2c(c(=O)[nH]1)CCN(C(=O)c1cc3c(s1)CCC3)C2 [CBK283751]	51.481
O=C(CN(c1ccccc1)S(=O)(=O)c1ccc(F)cc1)Nc1ccc(Cl)c(Cl)c1 [CBK268740]	99.2254
Cc1cc(NC(=O)NC2CC3(CCN(C)CC3)Oc3ccccc32)no1 (stereo not drawn) [CBK305059]	46.1274
COc1ccc2[nH]c3c(c2c1)CCN(C(=O)CNCc1ccc(OC)c(OC)c1)C31CCN(CCOc2ccccc2)C1 (stereo not drawn) [CBK076736T]	61.1305
CC(=O)N1CCC2(C/C=C/C[C@H]3CN(CCCc4ccccc4)CC[C@H]3NC(=O)CNC2=O)CC1 [CBK292140]	95.5779
Cc1cccc(NC2(C(F)(F)F)NC(c3ccccc3)=NC2=O)n1 (stereo not drawn) [CBK267476]	102.194
Cc1oc(CSc2nnc(NCc3ccc(F)cc3)s2)cc1C(=O)O [CBK296629]	102.673
COc1ccc(OC(=O)N2CCC3(CC2)CC(=O)N(Cc2ccc(S(C)(=O)=O)cc2)C3=O)cc1 [CBK155952]	66.7363
CCn1c(=O)n(CC(=O)NCCc2ccccc2)c2cccnc21 [CBK283812]	91.8187

SMILES	% of control remaining
CC(C)(C)c1ccc2c(c1)C(CCCCN1CCCC1)(c1ccccc1)C(=O)O2 (stereo not drawn) [CBK017654C]	22.582
COc1ccc(-c2nc(COC(=O)c3cccnc3N)cs2)cc1OC [CBK296741]	73.5246
O=C(Nc1cccc(C(=O)O)c1)/C(=C\c1ccccc1)NC(=O)c1ccccc1Cl [CBK263710]	101.392
Cc1c(C(=O)N2CCS(=O)(=O)CC2)nnn1-c1ccc2ncccc2c1 [CBK305529]	36.5174
O=C(CN1CCN(c2ncccn2)CC1)N1N=CCC1c1ccccc1 (stereo not drawn) [CBK270184]	92.8827
COC(=O)CNC(=O)CNS(=O)(=O)c1ccc(C(C)=O)cc1 [CBK044117]	72.0235
CC(=O)N1CCN(Cc2c(C(F)(F)F)[nH]c3ncc(C)cc23)CC1 [CBK284768]	103.476
Cc1ccc(NC(=O)c2nccc3ccccc23)c(C)n1 [CBK200294]	111.256
CC(=O)N1C2CCC1CC(O)(Cn1ccc3ccnc(Cl)c31)C2 (stereo not drawn) [CBK284868]	110.446
Cc1cc(C)nc(NC(=O)OCCc2cccnc2)c1 [CBK138234]	83.4919
Cc1ccc2[nH]c(/C(C#N)=C\c3cc(C)n(-c4ccc(S(N)(=O)=O)cc4)c3C)nc2c1 [CBK267611]	101.072
O=C(Nc1cccc2ncccc12)c1ccnc(N2CCOCC2)c1 [CBK287882]	98.5878
CN1CCCCCC1c1nc(-c2c[nH]c3ccccc23)nn1CCO (stereo not drawn) [CBK306988]	73.9658
CC(c1ccc(F)c(F)c1)N(C)C(=O)Cn1ncn(C)c1=O (stereo not drawn) [CBK305083]	80.5161
Cn1c(=O)n(CC(N)=O)c(=O)c2c1nc1oc(C(C)(C)C)cn12 [CBK306081]	35.0836
C=Cn1cc(CN2CCN(C3CCCCC3)C(=O)C2)c(C)n1 [CBK282561]	131.503
Cn1cc(CNCc2ccc(N3CCCC3)nc2)c(-c2cccnc2)n1 [CBK306312]	55.5858
Cc1ccc(S(=O)(=O)N(C)c2c(C)ccc(S(=O)(=O)N(C)CCO)c2C)cc1 [CBK264970]	99.4272
CC(NC(=O)COc1ccc(Br)cc1)C(=O)O (stereo not drawn) [CBK262083]	85.7072
